Several values for one entry are separate records, joined by “and”; a condition that tells them apart may be missing. Equal entries are not always repeated. Screen size: about 420,000 compounds; about 50,000 (12%) were called active. Inconclusive results, whose numbers are uncertain, are shown with a selection of clear calls. Calls come from the whole dose curve; as a rule, active = well fitted inhibition curve with a large enough effect; inconclusive = small, poorly fitted or top-dose-only effect; inactive = flat fitted curve, though single readings scatter. Potencies of inconclusive entries are doubtful fits and often do not repeat. The source holds several records for some structures; these can differ, active in one and inactive in another.
Assay: qHTS for Inhibitors of human tyrosyl-DNA phosphodiesterase 1 (TDP1): qHTS in cells in presence of CPT; note: nearly all actives have a fitted effect of over 55% in size
Details: chicken DT40 Tdp1-/-;hTDP1 cells + 20 nM CPT, ATP luminescence, 48 h; series mostly up to 46.2 µM
Summary of the method: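 Cell growth measured by CellTiter-Glo luminescence after a minimum 48 h, 37 C compound exposure with 20 nM CPT in Tdp1-knockout DT40 cells stably expressing hTDP1, seeded 400/well; qHTS titration format.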
In the case of Cc1cc(NC(=O)CSc2nc(=O)n(CCCN(C)C)c3c2CCCC3)no1, the Potency is reported as “inactive”.
For NC(=O)COC(=O)CC12CC3CC(CC(Br)(C3)C1)C2, the Potency was “inactive”.
In the case of COc1ccc(S(=O)(=O)N2CCN(C(=O)c3cc(C4CC4)nn3-c3ccccc3)CC2)cc1OC, the Potency is reported as inconclusive: 29.1 µM [inhibitor, single point].
For COc1cc(NC(=O)C[n+]2ccc(C(=O)c3ccccc3)cc2)cc(OC)c1, the Potency was active: 23.1 µM.
In the case of N#CCCN1CCN(C(=S)c2ccc(-c3cccc(Cl)c3)o2)CC1, the Potency is reported as inconclusive: 1.46 µM [inhibitor, partial curve].
In the case of CC(C)c1ccccc1NC(=O)COC(=O)Cc1c[nH]c2ccccc12, the Potency is reported as active: 0.082 µM.
In the case of CCC(C)c1ccccc1N1CC(C(=O)Nc2ccc(C)c(S(=O)(=O)N3CCOCC3)c2)CC1=O (configuration not stated), the Potency is reported as inconclusive: 23.1 µM [inhibitor, single point].
In the case of O=C(NCc1ccco1)C(c1cccs1)N(C(=O)C1COc2ccccc2O1)c1cccc(O)c1 (configuration not stated), the Potency is reported as active: 23.1 µM.
With O=C(NC1CCCCCC1)C1c2ccccc2C(=O)N1Cc1ccc(F)cc1 (configuration not stated) the Potency was “inactive”.
For COc1ccc(N(C)S(=O)(=O)c2cccc(C(=O)NCC(c3ccco3)N3CCCC3)c2)cc1 (configuration not stated), the Potency was inconclusive: 23.1 µM [inhibitor, single point].
With Cc1cc(C)nc(SCc2nnc(SCc3ccc([N+](=O)[O-])cc3)n2Cc2ccco2)n1 the Potency was inconclusive: 25.9 µM [inhibitor, single point].
With CC(C)c1ccc(NC(=O)CN(C)C2=NS(=O)(=O)c3ccccc32)cc1 the Potency was inconclusive: 20.6 µM [inhibitor, single point].
For O=C(CCC(=O)N/N=C/c1cc(Cl)cc(Cl)c1O)NCc1ccccc1, the Potency was inconclusive: 29.1 µM [inhibitor, single point].
With CN(C)Cc1nc2ccccc2c(=O)n1Cc1nc(-c2cccc([N+](=O)[O-])c2)cs1 the Potency was active: 18.4 µM.
For Cc1ccc(N(CC(=O)NC2CCCCC2)C(=O)CNC(=O)c2ccco2)cc1C, the Potency was “inactive”.
For COc1ccccc1CCN1COc2c(cc3c(C)c(C)c(=O)oc3c2C)C1, the Potency was inconclusive: 20.6 µM [inhibitor, single point].
For O=C(Nc1ccc(Br)cc1)c1cccn1-c1ncc(C(F)(F)F)cc1Cl, the Potency was active: 15.8 µM.
With COc1ccc(-c2nc(CN3CCC(C(=O)NC4CC4)CC3)c(C)o2)cc1OC the Potency was “inactive”.
With C/C(=N\N=C1\NC(=O)C(Cc2ccccc2)S1)c1ccccc1 (configuration not stated) the Potency was inconclusive: 29.1 µM [inhibitor, single point].
With S=C(Nc1ccccc1)N1N=C(c2cccs2)CC1c1cccs1 (configuration not stated) the Potency was inconclusive: 29.1 µM [inhibitor, single point].
In the case of CCOC(=O)c1cc(C)n(CC2CCC(C(=O)Nc3cccc(Cl)c3)CC2)c1C (configuration not stated), the Potency is reported as inconclusive: 25.9 µM [inhibitor, single point].
In the case of CCOc1cc(C2NC(=O)NC(C)=C2C(=O)OCC2CCCCC2)ccc1O (configuration not stated), the Potency is reported as inconclusive: 16.4 µM [inhibitor, single point].
For COC(=O)/C=C\C(=O)Nc1cccc([N+](=O)[O-])c1, the Potency was active: 1.03 µM.
With Cc1cc(=O)[nH]c2ccccc12 the Potency was inconclusive: 35.5 µM [inhibitor, single point].
In the case of Cc1ccc(NC(=O)c2oc3ccc(S(=O)(=O)N4CCOCC4)cc3c2C)cc1C, the Potency is reported as inconclusive: 7.94 µM [inhibitor, full curve, poor fit].
For CCc1cccc(NC(=O)Cn2c(=O)n(CCC(=O)NCc3ccccc3Cl)c(=O)c3sccc32)c1, the Potency was inconclusive: 8.2 µM [inhibitor, partial curve].
With CCN(CC)CCCNC(=O)CSc1nc2c(c(C(F)(F)F)n1)CCc1ccccc1-2 the Potency was inconclusive: 29.1 µM [inhibitor, single point].
For COc1ccc2sc(-c3ccccc3OC)c(C#CC(C)(C)O)c2c1, the Potency was inconclusive: 23.1 µM [inhibitor, single point].
For CCOc1ccc2c(c1)C(C)=CC(C)(C)N2, the Potency was active: 13.3 µM.
For CCOC(=O)c1sc(NC(C)=O)nc1C, the Potency was inconclusive: 29.1 µM [inhibitor, single point].
In the case of COC(=O)/C=C/c1ccc2c(c1)S(=O)(=O)N(c1cccc(OC)c1)[C@H]2CC(=O)OC, the Potency is reported as inconclusive: 22.4 µM [inhibitor, single point] and inconclusive: 29.1 µM [inhibitor, single point].
In the case of CS(=O)(=O)c1ccc(Sc2nc3ccccc3s2)c([N+](=O)[O-])c1, the Potency is reported as active: 10.3 µM.
With CC(=O)c1cccc(OCc2cc(C(=O)NCc3nc(C)c(C)s3)no2)c1 the Potency was inconclusive: 25.9 µM [inhibitor, single point].
In the case of COc1cc2c(cc1OC)C(c1ccccc1OC(C)C)CC(=O)N2 (configuration not stated), the Potency is reported as inconclusive: 29.1 µM [inhibitor, single point].
In the case of COc1ccc(N/C(=C/[N+](=O)[O-])SC)cc1, the Potency is reported as “inactive”.
In the case of Cc1ccc(C(=O)NC(=S)Nc2nc(-c3cccc([N+](=O)[O-])c3)cs2)c(Cl)c1, the Potency is reported as inconclusive: 25.9 µM [inhibitor, single point].
For Cc1c(C(=O)NCc2cccs2)oc2ccccc12, the Potency was “inactive”.
In the case of COc1cc2c(cc1OC)C(c1ccc(-c3cc(Cl)ccc3Cl)o1)=NCC2, the Potency is reported as active: 2.59 µM.
For CC(=O)Nc1ccc(S(=O)(=O)Nc2ccccc2N2CCOCC2)cc1, the Potency was “inactive”.
For COc1ccc(/C=N/OCC(=O)NC(c2ccccc2)c2ccccc2)cc1OC, the Potency was active: 5.17 µM.
In the case of Cc1oc(C(=O)O)cc1COc1ccc2c(C)cc(=O)oc2c1, the Potency is reported as “inactive”.
With Cc1cc(C)n(-c2nc3c(c(=O)[nH]c(=O)n3C)n2Cc2cccc(Br)c2)n1 the Potency was inconclusive: 29.1 µM [inhibitor, single point].
For O=C(Nc1cccc(F)c1)N1CC=C(c2ccc(Cl)cc2)CC1, the Potency was inconclusive: 29.1 µM [inhibitor, single point].
In the case of COc1ccc(-c2nc(-c3ccccc3)ncc2S(C)(=O)=O)cc1, the Potency is reported as inconclusive: 20.6 µM [inhibitor, single point].
In the case of Cn1c(=N)n(CC(=O)c2ccc(Br)cc2)c2ccccc21, the Potency is reported as active: 20.6 µM.
For Nc1c(C(=O)Nc2cccc(F)c2)nnn1-c1cccc(C(F)(F)F)c1, the Potency was inconclusive: 29.1 µM [inhibitor, single point].
With Cn1c(-c2ccc3c(c2)OCO3)cnc1NCc1ccccc1 the Potency was active: 20.6 µM.
For Cc1ccc(N2CCN(C(=O)c3cccs3)CC2)c(C)c1, the Potency was inconclusive: 29.1 µM [inhibitor, partial curve, poor fit].
In the case of Cc1nc2c(c3c1[nH]c1ccccc13)C(O)CC(C)(C)C2 (configuration not stated), the Potency is reported as active: 18.4 µM.
For CCN(CC)Cc1cc(C(C)=O)ccc1OCC(C)C, the Potency was “inactive”.
In the case of O=C(NCc1cccnc1)c1ccc(COc2cccc3ccccc23)o1, the Potency is reported as inconclusive: 25.9 µM [inhibitor, single point].
For CCC1(C)Cc2c(sc3nnn(Cc4ccccc4Cl)c(=O)c23)CO1 (configuration not stated), the Potency was inconclusive: 29.1 µM [inhibitor, single point].
In the case of COc1ccc(OC)c(-c2nnc(-c3ccc(C)o3)o2)c1, the Potency is reported as inconclusive: 23.1 µM [inhibitor, single point].
In the case of CCNc1nc(NCC)n2c(SC(C)C(=O)c3ccc(C)cc3)nnc2n1 (configuration not stated), the Potency is reported as inconclusive: 20.6 µM [inhibitor, partial curve, poor fit].
With C=CCn1c(=O)c(C(=O)NC(C)c2ccccc2)c(O)c2ccccc21 (configuration not stated) the Potency was inconclusive: 23.1 µM [inhibitor, single point].
With CCN(CC)CCNc1ccnc2cc(Cl)ccc12 the Potency was “inactive”.
With Cc1ccc(S(=O)(=O)Nc2ccccc2OC(C(=O)OC(C)(C)C)C(=O)OC(C)(C)C)cc1 the Potency was active: 14.6 µM.
For CCN(CC)C(=O)Cn1c(=O)c2ccccc2n2c(=S)sc(-c3cccc(C)c3)c12, the Potency was inconclusive: 29.1 µM [inhibitor, single point].
With COc1cc(CCc2ccccc2)c(C(=O)O)c(O)c1C/C=C(/C)CCC=C(C)C the Potency was inconclusive: 14.6 µM [inhibitor, partial curve].
In the case of COc1ccc(OCCCC(=O)Nc2cccc(SC)c2)cc1, the Potency is reported as “inactive”.
In the case of COc1cc(NC(=O)N2CCc3nc(NCc4cccc(Oc5ccccc5)c4)ncc3C2)cc(OC)c1OC, the Potency is reported as inconclusive: 23.1 µM [inhibitor, single point].
In the case of Cc1ccc(C)c(N2CCN(S(=O)(=O)c3ccc(-c4cnc(C5CC5)o4)cc3)CC2)c1, the Potency is reported as active: 14.6 µM.
In the case of CCOC(=O)NCc1ccc(S(=O)(=O)Nc2ccc(C)cc2)cc1, the Potency is reported as inconclusive: 18.4 µM [inhibitor, single point].
In the case of COc1ccc(-c2nc3ccccn3c2Nc2ccccc2C)cc1, the Potency is reported as active: 11.2 µM.
With CCc1cccc(CC)c1NC(=O)CSc1nnc(C2CC2)n1C the Potency was “inactive”.
With N#C/C(=C(/O)c1ccc([N+](=O)[O-])cc1)c1nnc2n1CCCCC2 the Potency was “inactive”.
For CCOCCCNc1nc2c(S(=O)(=O)c3ccc(CC)cc3)nnn2c2ccc(Cl)cc12, the Potency was inconclusive: 16.4 µM [inhibitor, single point].
With O=C(NCc1ccncc1)c1cccc(S(=O)(=O)N2CCc3ccccc32)c1 the Potency was active: 20.6 µM.
In the case of O=C(/C=C/Sc1ccccc1)c1ccc(Cl)cc1, the Potency is reported as inconclusive: 23.1 µM [inhibitor, single point].
With OCCc1c[nH]c2ccc(C(F)(F)F)cc12 the Potency was “inactive”.
For O=C(Cn1ncc2c3ccccc3n(Cc3cccc(Cl)c3)c2c1=O)NCCCN1CCCCC1, the Potency was “inactive”.
With COc1ccc(-c2cn3cccnc3n2)cc1NC(=O)Nc1cc(C)ccc1C the Potency was inconclusive: 29.1 µM [inhibitor, single point].
Potency is the fitted concentration of half-maximal effect; tags give direction and shape of the fitted curve.
